Like-named read-outs stand apart in the source and are kept apart here.
How the values were obtained:
[1] = molecular target: T1, mouse serum albumin (mouse, UniProt P07724 25-608); experiment: BLI (ForteBio), VHH-Fc on AHQ sensor, 1:1 model
T1 construct: Bought reagent; also called MSA

[2] = molecular target: T2, cynomolgus serum albumin (cynomolgus); experiment: BLI (ForteBio), VHH-Fc on AHQ sensor, 1:1 model
T2 construct: Bought reagent; also called CSA

[3] = molecular target: T3, human serum albumin (human, UniProt P02768); experiment: BLI (ForteBio), VHH-Fc on AHQ sensor, 100 nM antigen, 1:1 model
T3 construct: Bought reagent; also called HSA; HSA antigen

[4] = molecular target: T1, mouse serum albumin; experiment: BLI (ForteBio), VHH-Fc on AHQ sensor, 1:1 model; remark: listed apart in the source
[5] = molecular target: T2, cynomolgus serum albumin; experiment: BLI (ForteBio), VHH-Fc on AHQ sensor, 1:1 model; remark: listed apart in the source
[6] = molecular target: T3, human serum albumin; experiment: BLI (ForteBio), VHH-Fc on AHQ sensor, 100 nM antigen, 1:1 model; remark: listed apart in the source

Row | Binder | Kd [1] | koff [1] | kon [1] | Kd [2] | koff [2] | kon [2] | Kd [3] | koff [3] | kon [3] | Kd [4] | koff [4] | kon [4] | Kd [5] | koff [5] | kon [5] | Kd [6] | koff [6] | kon [6]
1 | Hu-HSA-PH-8-1 (Fc fusion, Humanized from HSA-PH-8) QVQLVESGGGLVQPGGSLRLSCSASGSIWGIYHMGWYRQAPGKQRELVASITVDGSTHYADTVKGRFTISRDNSKNMVYLQMNSLEPEDTAVYYCDIRNVGGDYWGQGTQVTVSS[sequence of human IgG1 Fc with changes omitted] | 25.5 nM | 0.00685 s⁻¹ | 268000 M⁻¹ s⁻¹ | 16.2 nM | 0.00446 s⁻¹ | 276000 M⁻¹ s⁻¹ | 72.8 nM | 0.00744 s⁻¹ | 102000 M⁻¹ s⁻¹ |  |  |  |  |  |  |  |  | 
2 | HSA-PH-8 (Fc fusion) QVQLQESGGGLVQPGGSLRLSCVASGSIWGIYHMGWYRQAPGKQRELVASITVDGSTHYADTVKGRFTISKDNAANMVYLQMNALEPEDTAVYYCDIRNVGGDYWGQGTQVTVSS[sequence of human IgG1 Fc with changes omitted] |  |  |  |  |  |  |  |  |  | 10.5 nM | 0.00288 s⁻¹ | 274000 M⁻¹ s⁻¹ | 6.64 nM | 0.0018 s⁻¹ | 271000 M⁻¹ s⁻¹ | 21.5 nM | 0.00265 s⁻¹ | 123000 M⁻¹ s⁻¹
3 | HSA-76 (Fc fusion) QVQLQESGGGLVQPGGSLRLSCAASGSIFTFYRMAWYRRAPGKERELVALITTDTSTNYADSVKGRFTISRDYAKNTVYLQMDSLKPEDTAAYYCNVRNVERDYWGQGTQVTVSS[sequence of human IgG1 Fc with changes omitted] |  |  |  |  |  |  |  |  |  | 31.3 nM | 0.00407 s⁻¹ | 130000 M⁻¹ s⁻¹ | 25.7 nM | 0.00549 s⁻¹ | 214000 M⁻¹ s⁻¹ | 797 nM | 0.00696 s⁻¹ | 8730 M⁻¹ s⁻¹
4 | HSA-59 (Fc fusion) QVQLQESGGGLVQAGGSLRLSCAASGFTLDYYAIGWFRQAPGKEREEVSCISSSGGSTNYADSVKGRFTISRDNAKNTVYLQMNSLKPEDTGVYYCAAALLECRVRSWPSDNWGQGTQVTVSS[sequence of human IgG1 Fc with changes omitted] |  |  |  |  |  |  |  |  |  | 31.1 nM | 0.0034 s⁻¹ | 109000 M⁻¹ s⁻¹ | 77.3 nM | 0.0111 s⁻¹ | 143000 M⁻¹ s⁻¹ | 29.1 nM | 0.00162 s⁻¹ | 55500 M⁻¹ s⁻¹
5 | HSA-M-16 (Fc fusion) QVQLQESGGGLVQPGGSLRLSCAASGFTLDYYAIGWFRQAPGKEREGVSCIASSGGSTNYADYVKGRFTISRDNAKNTVYLLMNKLKPEDTAVYYCAAAVLECRTVVREYDYWGQGTQVTVSS[sequence of human IgG1 Fc with changes omitted] |  |  |  |  |  |  |  |  |  | 12.2 nM | 0.00546 s⁻¹ | 447000 M⁻¹ s⁻¹ | 70.7 nM | 0.0201 s⁻¹ | 284000 M⁻¹ s⁻¹ | 38.1 nM | 0.00628 s⁻¹ | 165000 M⁻¹ s⁻¹
6 | HSA-M-27 (Fc fusion) QVQLQESGGGLVQPGGSLRLSCAASGFTLDYYAIGWFRQAPGKEREGVSCIASSGGSTNYADSVKGRFTISRDNAKNTVYLQMNKLKPEDTAVYYCAAAVLECRTVVRGYDYWGQGTQVTVSS[sequence of human IgG1 Fc with changes omitted] |  |  |  |  |  |  |  |  |  | 17.4 nM | 0.00752 s⁻¹ | 433000 M⁻¹ s⁻¹ | 71.6 nM | 0.0201 s⁻¹ | 280000 M⁻¹ s⁻¹ | 16.1 nM | 0.00393 s⁻¹ | 244000 M⁻¹ s⁻¹
7 | HSA-M-29 (Fc fusion) QVQLQESGGGLVQPGGSLRLSCVASRFTLDYYAIGWFRQAPGKEREGVSCIASSGGSTNYADSVKGRFTISRDNAKNTVYLQMNKLKPEDTAVYYCAAAVLECRTVVRGYDYWGQGTQVTVSS[sequence of human IgG1 Fc with changes omitted] |  |  |  |  |  |  |  |  |  | 17.7 nM | 0.00722 s⁻¹ | 408000 M⁻¹ s⁻¹ | 74.3 nM | 0.0204 s⁻¹ | 274000 M⁻¹ s⁻¹ | 23.3 nM | 0.00585 s⁻¹ | 251000 M⁻¹ s⁻¹
8 | HSA-30 (Fc fusion) QVQLQESGGGLVQPGGSLRLSCKASGFTFSIYSMGWYRQVPGKEREAVATISSGGSPFYANSASGRFTISRDNAKSTVYLQMNNLKPEDTGVYSCSPITSIFKAQGQGTQVTVSS[sequence of human IgG1 Fc with changes omitted] |  |  |  |  |  |  |  |  |  | 25.8 nM | 0.00354 s⁻¹ | 137000 M⁻¹ s⁻¹ | 1.2 nM | 0.00039 s⁻¹ | 325000 M⁻¹ s⁻¹ | 1.54 nM | 0.000215 s⁻¹ | 140000 M⁻¹ s⁻¹

Further lines, results first:

Row | Kd [1] | koff [1] | kon [1] | Kd [2] | koff [2] | kon [2] | Kd [3] | koff [3] | kon [3] | Kd [4] | koff [4] | kon [4] | Kd [5] | koff [5] | kon [5] | Kd [6] | koff [6] | kon [6] | Binder
9 | 25.6 nM | 0.00653 s⁻¹ | 256000 M⁻¹ s⁻¹ | 17.8 nM | 0.00464 s⁻¹ | 261000 M⁻¹ s⁻¹ | 60.6 nM | 0.00764 s⁻¹ | 126000 M⁻¹ s⁻¹ |  |  |  |  |  |  |  |  |  | Hu-HSA-PH-8-3 (Fc fusion, Humanized from HSA-PH-8) QVQLVESGGGLVQPGGSLRLSCSASGSIWGIYHMGWYRQAPGKQRELVASITVDGSTHYADTVKGRFTISRDNSKNMVYLQMNSLRAEDTAVYYCDIRNVGGDYWGQGTQVTVSS[sequence of human IgG1 Fc with changes omitted]
10 | 42 nM | 0.00835 s⁻¹ | 199000 M⁻¹ s⁻¹ | 32.8 nM | 0.00554 s⁻¹ | 169000 M⁻¹ s⁻¹ | 213 nM | 0.0113 s⁻¹ | 53200 M⁻¹ s⁻¹ |  |  |  |  |  |  |  |  |  | Hu-HSA-PH-8-2 (Fc fusion, Humanized from HSA-PH-8) QVQLVESGGGLVQPGGSLRLSCSASGSIWGIYHMGWYRQAPGKGLELVASITVDGSTHYADTVKGRFTISRDNSKNMVYLQMNSLEPEDTAVYYCDIRNVGGDYWGQGTQVTVSS[sequence of human IgG1 Fc with changes omitted]
11 |  |  |  |  |  |  |  |  |  | 6.32 nM | 0.00296 s⁻¹ | 468000 M⁻¹ s⁻¹ | 9.07 nM | 0.00537 s⁻¹ | 591000 M⁻¹ s⁻¹ | 44.3 nM | 0.00979 s⁻¹ | 221000 M⁻¹ s⁻¹ | HSA-PH-11 (Fc fusion) QVQLQESGGGLVQPGGSLRLSCTASGAQLEYYAIGWFRQAPGKEREGVSCISSSGGSTNNADSVKGRFTISRDNAKNTVYLQMNSLKPEDTAVYYCAAATLECRTVLTGYDYWGQGTQVTVSS[sequence of human IgG1 Fc with changes omitted]
12 |  |  |  |  |  |  |  |  |  | 4.39 nM | 0.00237 s⁻¹ | 540000 M⁻¹ s⁻¹ | 16.6 nM | 0.00785 s⁻¹ | 473000 M⁻¹ s⁻¹ | 22.4 nM | 0.00431 s⁻¹ | 193000 M⁻¹ s⁻¹ | HSA-W-20 (Fc fusion) QVQLQESGGGLVQPGGSLRLSCAASGFTLDYYAIGWFRQAPGKEREGVSCIASSGGSTNYADSVKGRFTISRDNAENTVYLQMNSLKPEDTAVYYCAAAVLECRTVVRGYDYWGQGTQVTVSS[sequence of human IgG1 Fc with changes omitted]
13 | 11.7 nM | 0.00419 s⁻¹ | 357000 M⁻¹ s⁻¹ | 71.4 nM | 0.0195 s⁻¹ | 273000 M⁻¹ s⁻¹ | 454 nM | 0.0149 s⁻¹ | 32900 M⁻¹ s⁻¹ |  |  |  |  |  |  |  |  |  | Hu-HSA-59-3 (Fc fusion, Humanized from HSA-59) EVQLLESGGGLVQPGGSLRLSCAASGFTLDYYAIGWFRQAPGKEREEVSCISSSGGSTNYADSVKGRFTISRDNSKNTVYLQMNSLRAEDTAVYYCAAALLECRVRSWPSDNWGQGTQVTVSS[sequence of human IgG1 Fc with changes omitted]
14 | 6.22 nM | 0.00381 s⁻¹ | 612000 M⁻¹ s⁻¹ | 47.8 nM | 0.015 s⁻¹ | 314000 M⁻¹ s⁻¹ | 34.8 nM | 0.00666 s⁻¹ | 192000 M⁻¹ s⁻¹ |  |  |  |  |  |  |  |  |  | Hu-HSA-M-27-1-2 (Fc fusion) EVQLLESGGGLVQPGGSLRLSCAASGETLDYYAIGWFRQAPGKEREGVSCIASSGGSTNYADSVKGRFTISRDNSKNTVYLQMNSLKPEDTAVYYCAAAVLECRTVVRGYDYWGQGTQVTVSS[sequence of human IgG1 Fc with changes omitted]
15 | 8.21 nM | 0.00358 s⁻¹ | 436000 M⁻¹ s⁻¹ | 43.6 nM | 0.013 s⁻¹ | 299000 M⁻¹ s⁻¹ | 42.3 nM | 0.00566 s⁻¹ | 134000 M⁻¹ s⁻¹ |  |  |  |  |  |  |  |  |  | Hu-HSA-M-27-2 (Fc fusion, Humanized from HSA-M-27) EVQLLESGGGLVQPGGSLRLSCAASGFTLDYYAIGWFRQAPGKGLEGVSCIASSGGSTNYADSVKGRFTISRDNSKNTVYLQMNSLKPEDTAVYYCAAAVLECRTVVRGYDYWGQGTQVTVSS[sequence of human IgG1 Fc with changes omitted]
16 | 13 nM | 0.00459 s⁻¹ | 354000 M⁻¹ s⁻¹ | 80.4 nM | 0.0233 s⁻¹ | 289000 M⁻¹ s⁻¹ | 1740 nM | 0.0215 s⁻¹ | 12400 M⁻¹ s⁻¹ |  |  |  |  |  |  |  |  |  | Hu-HSA-59-2 (Fc fusion, Humanized from HSA-59) EVQLLESGGGLVQPGGSLRLSCAASGFTLDYYAIGWFRQAPGKGLEEVSCISSSGGSTNYADSVKGRFTISRDNSKNTVYLQMNSLKPEDTAVYYCAAALLECRVRSWPSDNWGQGTQVTVSS[sequence of human IgG1 Fc with changes omitted]
17 | 7.62 nM | 0.00394 s⁻¹ | 517000 M⁻¹ s⁻¹ | 37.7 nM | 0.0153 s⁻¹ | 407000 M⁻¹ s⁻¹ | 40.9 nM | 0.00692 s⁻¹ | 169000 M⁻¹ s⁻¹ |  |  |  |  |  |  |  |  |  | Hu-HSA-M-27-3 (Fc fusion, Humanized from HSA-M-27) EVQLLESGGGLVQPGGSLRLSCAASGFTLDYYAIGWFRQAPGKEREGVSCIASSGGSTNYADSVKGRFTISRDNSKNTVYLQMNSLRAEDTAVYYCAAAVLECRTVVRGYDYWGQGTQVTVSS[sequence of human IgG1 Fc with changes omitted]

Source: patent publication US20250223340A1 (BIOTHEUS, published 2025)
